Data: PubChem BioAssay AID504339 (National Center for Advancing Translational Sciences (NCATS), 2011)
The whole screen tested about 390,000 compounds, of which about 17,000 (4.4%) were called active. The inconclusive results got no clear call from the source; some entries with a clear call stand among them for comparison. Calls come from the whole dose curve; as a rule, active = well fitted inhibition curve with a large enough effect; inconclusive = small, poorly fitted or top-dose-only effect; inactive = no such curve, though single readings can be large or run the other way. Where the call is inconclusive, the potency comes from a doubtful curve fit.

Biological target: Lysine-specific demethylase 4A (Homo sapiens) (UniProt O75164)
Experiment: qHTS Assay for Inhibitors of JMJD2A-Tudor Domain; note: nearly all actives have a fitted effect of over 50% in size
Details: AlphaScreen JMJD2A-Tudor / H3K4me3 peptide binding; activity change, negative = inhibition: at 114 µM (top of the series)
% is set by controls: 0 for no effect and ±100 for the full control effect; potency is the fitted concentration of half-maximal effect; tags give direction and shape of the fitted curve.

UniProt O75164, sequence (O75164 whole entry, looked up, the tested form may be a part): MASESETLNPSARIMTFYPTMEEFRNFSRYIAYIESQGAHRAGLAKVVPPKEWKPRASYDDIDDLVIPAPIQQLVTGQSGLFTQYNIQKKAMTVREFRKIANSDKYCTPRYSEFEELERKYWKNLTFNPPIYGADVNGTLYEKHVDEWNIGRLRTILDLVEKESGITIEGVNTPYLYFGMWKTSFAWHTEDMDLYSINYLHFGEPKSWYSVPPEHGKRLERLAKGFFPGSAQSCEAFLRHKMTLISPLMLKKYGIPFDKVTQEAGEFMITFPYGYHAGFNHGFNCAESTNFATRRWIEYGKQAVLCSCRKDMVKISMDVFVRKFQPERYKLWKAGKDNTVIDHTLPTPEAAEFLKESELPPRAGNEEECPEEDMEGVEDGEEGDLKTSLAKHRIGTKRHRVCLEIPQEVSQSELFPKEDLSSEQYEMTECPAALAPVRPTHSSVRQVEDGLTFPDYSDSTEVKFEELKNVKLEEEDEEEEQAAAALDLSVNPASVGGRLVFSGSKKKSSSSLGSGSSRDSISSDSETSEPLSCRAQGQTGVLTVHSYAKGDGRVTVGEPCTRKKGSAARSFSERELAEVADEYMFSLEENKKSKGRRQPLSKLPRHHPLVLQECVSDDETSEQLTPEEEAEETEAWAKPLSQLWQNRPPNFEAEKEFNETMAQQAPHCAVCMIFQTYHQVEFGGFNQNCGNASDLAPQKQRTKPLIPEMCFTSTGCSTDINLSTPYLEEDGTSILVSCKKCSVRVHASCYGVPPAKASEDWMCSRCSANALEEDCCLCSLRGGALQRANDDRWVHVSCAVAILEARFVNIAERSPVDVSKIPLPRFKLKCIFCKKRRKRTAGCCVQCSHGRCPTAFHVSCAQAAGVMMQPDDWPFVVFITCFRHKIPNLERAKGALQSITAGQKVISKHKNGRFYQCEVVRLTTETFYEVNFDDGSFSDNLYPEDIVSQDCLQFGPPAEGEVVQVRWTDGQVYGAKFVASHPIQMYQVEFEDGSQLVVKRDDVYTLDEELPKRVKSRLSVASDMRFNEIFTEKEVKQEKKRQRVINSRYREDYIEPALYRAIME

Row | Compound | Potency | activity change, negative = inhibition
1 | Cc1nnc(SCC(=O)Nc2sccc2C#N)s1 | inconclusive: 56.2 µM [inhibitor, partial curve] | –
2 | COc1cc(C2NC(=O)NC3=C2C(=O)OC3)cc(OC)c1OC (centres undefined) | – | inactive: -6.62% [at 11.4 µM]
3 | CC(=O)N1CCN(c2ncnc3sc(-c4ccccc4)cc23)CC1 | – | inactive: -7.42%
4 | Cc1c(NC(=O)C2CC=CCC2C(=O)O)c(=O)n(-c2ccccc2)n1C (centres undefined) | – | inactive: -19.5%
5 | Clc1nc(-c2cccnc2)nc2scc(-c3ccccc3)c12 | – | inactive: 18.6%
6 | CCN(CC)S(=O)(=O)c1cc(NC(=O)C(C)N2CCN(c3ccccn3)CC2)ccc1C (centres undefined) | – | inactive: -22.6%
7 | O=C(CC(C(=O)N1CCc2ccccc21)n1ccnc1)N1CCc2ccccc2C1 (centres undefined) | inconclusive: 56.2 µM [inhibitor, partial curve] | –
8 | COc1cc(C)c(N)cc1C(C)C | inconclusive: 56.2 µM [inhibitor, partial curve] | –
9 | COc1cccc(OCc2cc(C(=O)N(C)Cc3nc4ccccc4[nH]3)no2)c1 | inconclusive: 100 µM [inhibitor, partial curve] | –
10 | COc1cccc(CNC(=O)c2ccccc2NC(=O)C2=C(C)OCCS2)c1 | inconclusive: 79.4 µM [inhibitor, partial curve] | –
11 | COc1ccc(S(=O)(=O)N2CCC(C(=O)Nc3ccccc3N3CCCC3)CC2)cc1OC | – | inactive: -21.6%
12 | CCOC(=O)C1(C)NC(c2ccco2)C2C(=O)N(C)C(=O)C21 (centres undefined) | – | inactive: -17.5%
13 | OC(CN1CCOCC1)Cn1c2c(c3ccccc31)CCCC2 (centres undefined) | inconclusive: 56.2 µM [inhibitor, partial curve, poor fit] | –
14 | N#CC1=C(N2CCCCC2)c2cc3c(n2C1=O)CCCC3 | inconclusive: 79.4 µM [inhibitor, partial curve] | –
15 | OC(CN1CCN(c2ccccn2)CC1)Cn1c2ccccc2c2ccccc21 (centres undefined) | inconclusive: 50.1 µM [inhibitor, partial curve] | –
16 | O=C(NCCc1ccccc1)c1cnc2ccccc2n1 | – | inactive: -19.4%
17 | c1ccc(C2[C@H]3CN(Cc4cccnc4)[C@H](c4ccccc4)C34CC2(c2cccnc2)C4)cc1 (some centres undefined) | inconclusive: 17.8 µM [inhibitor, full curve] | –
18 | O=C(Nc1ccc(Nc2ccccc2)cc1)c1cc([N+](=O)[O-])ccc1Cl | inconclusive: 31.6 µM [inhibitor, full curve] | –
19 | COc1ccc(C(=O)/C=C2/c3ccccc3CC(C)(C)N2C)cc1OC | inconclusive: 50.1 µM [inhibitor, single point] | –
20 | CC(=O)N1c2ccc(S(=O)(=O)NCCC(=O)N3CCCC(C)C3)cc2CC1C (centres undefined) | inconclusive: 14.1 µM [inhibitor, partial curve, poor fit] | –
21 | NNc1nc2c(Cl)c(Cl)ccc2s1 | active: 10 µM | –
22 | CCS(=O)(=O)Nc1ccc(C2=NN(C(=O)c3ccco3)C(c3ccco3)C2)cc1 (centres undefined) | – | inactive: -14.4%
23 | CO/N=C/CC(=O)c1ccc([N+](=O)[O-])c(CS(=O)(=O)c2ccc(Cl)cc2)c1 | inconclusive: 56.2 µM [inhibitor, partial curve] | –

Row | Compound | Potency | activity change, negative = inhibition
24 | Cc1ccc(/C=C2/C(=N)N3N=C(CC(=O)N4CCCC4)SC3=NC2=O)o1 | – | inactive: -7.24%
25 | CC(C)c1ccc(C(=O)NNC(=O)c2ccncc2)cc1 | – | inactive: -14.9%
26 | C[C@H](CO)N1C[C@H](C)[C@@H](CN(C)S(=O)(=O)c2ccccc2)Oc2ccc(NC(=O)c3ccncc3)cc2C1=O | inconclusive: 79.4 µM [inhibitor, single point] | –
27 | CC(=O)/C(=N\Nc1ccc(Cl)cc1Cl)Sc1nnc(-c2ccccc2)n1-c1ccccc1 | – | inactive: -12.3%
28 | COc1ccc(-n2cc(-c3ccccc3)c3c(N4CCN(CCO)CC4)ncnc32)cc1 | inconclusive: 56.2 µM [inhibitor, partial curve] | –
29 | CCN(CC)S(=O)(=O)c1ccc(NN)nc1 | active: 20 µM | –
30 | Cc1ccc(CNC(=O)C2CCC(=O)N(Cc3cccc(C(F)(F)F)c3)C2)o1 (centres undefined) | – | inactive: -4.79%
31 | Cc1ccc2cc(C)c3nnc(SCC(=O)c4cccs4)n3c2c1C | inconclusive: 70.8 µM [inhibitor, single point] | –
32 | COC(=O)C1NN=C(C(=O)c2ccccc2)C1c1ccccc1 (centres undefined) | inconclusive: 79.4 µM [inhibitor, partial curve] | –
33 | O=C(Nc1cccc(/C=C/c2ccccn2)c1)c1ccc(-n2cncn2)c([N+](=O)[O-])c1 | inconclusive: 56.2 µM [inhibitor, partial curve] | –
34 | O=C(c1cc(-c2ccco2)nn1-c1cccc(Cl)c1)N1CCCCC1 | active: 25.1 µM | –
35 | COc1ccc(N2CCN(C(=O)c3cc(=O)c4cc(C)cc(C)c4o3)CC2)cc1 | inconclusive: 100 µM [inhibitor, partial curve] | –
36 | COc1cc(-c2nc3ccccn3c2NCc2ccccc2)ccc1SC1CCCCC1 | inconclusive: 35.5 µM [inhibitor, partial curve] | –
37 | Cc1ccc2ccc(C(Nc3cccc(C(F)(F)F)c3)c3cccnc3)c(O)c2n1 (centres undefined) | inconclusive: 44.7 µM [inhibitor, partial curve] | –
38 | O=C(c1ccc(Cl)c(S(=O)(=O)N2CCCCCC2)c1)N1CCN(c2ccc(O)cc2)CC1 | inconclusive: 25.1 µM [inhibitor, full curve] | –
39 | CC(=O)c1ccc(NC(=S)N2CCN(CCN3C(=O)c4cccc5cccc(c45)C3=O)CC2)cc1 | inconclusive: 28.2 µM [inhibitor, single point] | –
40 | O=C(CCc1c[nH]c2ccccc12)NCc1ccc2c(c1)OCO2 | – | inactive: -13.8%
41 | O=C(CSc1nnc(-c2cccs2)n1Cc1ccco1)c1ccc2c(c1)OCO2 | inconclusive: 79.4 µM [inhibitor, partial curve] | –
42 | O=S(=O)(Nc1nc(-c2ccccc2)cs1)c1cc(Cl)ccc1Cl | inconclusive: 56.2 µM [inhibitor, partial curve] | –
43 | CN(C)c1ccc(CN(C(=O)C2COc3ccccc3O2)C2CCS(=O)(=O)C2)cc1 (centres undefined) | inconclusive: 56.2 µM [inhibitor, partial curve] | –
44 | COc1cc(NS(=O)(=O)c2cccc3nsnc23)c(C(=O)O)cc1OC | inconclusive: 89.1 µM [inhibitor, single point] | –
45 | C#CCOCCOCCOCCNc1nc(N2CCOCC2)nc(N2CCN(C(=O)CCCCCCCCCCNC(=O)[C@H](CO)n3cc(CCCCCN)nn3)CC2)n1 | inconclusive: 79.4 µM [inhibitor, single point] | –
46 | Cc1nn(C(C)c2n[nH]c(=S)n2-c2ccc(F)cc2)c(C)c1[N+](=O)[O-] (centres undefined) | active: 25.1 µM | –

Row | Compound | Potency | activity change, negative = inhibition
47 | COc1ccccc1-n1cc(-c2ccccc2)[nH]c1=S | inconclusive: 12.6 µM [inhibitor, full curve, poor fit] | –
48 | CCc1ccc(C(=O)CN2CCSC2=N)cc1 | inconclusive: 56.2 µM [inhibitor, partial curve] | –
49 | NS(=O)(=O)c1ccc(NC(=S)N2CCN(Cc3ccc4c(c3)OCO4)CC2)cc1 | – | inactive: -22%
50 | O=C(O)CSC1=NC(=Nc2cccc(Cl)c2)C2(CCCCC2)N1c1ccccc1 | active: 44.7 µM | –
51 | N#Cc1c(NC(=O)c2cc(-n3cnnc3)ccc2Cl)sc2c1CCCC2 | – | inactive: -31.5%
52 | N=C1/C(=C\c2ccc(OC(=O)c3ccccc3)cc2)C(=O)N=C2SC(N3CCOCC3)=NN12 | inconclusive: 79.4 µM [inhibitor, partial curve] | –
53 | COc1ccc(Cn2ccc3nc(C)c(C(=O)N4CCN(c5cccc(OC)c5)CC4)cc3c2=O)cc1 | inconclusive: 56.2 µM [inhibitor, partial curve] | –
54 | CS(=O)(=O)N(Cc1ccccc1)c1ccc(C(=O)Nc2cccc(Cl)c2)cc1 | – | inactive: -18.3%
55 | O=C(Nc1ccc(Br)cc1)c1csc(-c2ccncc2)n1 | inconclusive: 89.1 µM [inhibitor, partial curve, poor fit] | –
56 | Cc1ccc(CN2CCSc3ccc(C(=O)NC4CCN(Cc5ccccc5)CC4)cc32)cc1 | inconclusive: 12.6 µM [inhibitor, full curve] | –
57 | CCOc1ccc(/C(O)=C2/C(=O)C(=O)N(CCN(C)C)C2c2ccccc2)cc1Cl (centres undefined) | – | inactive: -22.8%
58 | COc1ccc2c(c1)Cc1sc(NC(=O)c3cccnc3)nc1-2 | – | inactive: -9.77% [at 11.4 µM]
59 | O=S(=O)(NCc1ccco1)c1ccc(Cl)nc1 | – | inactive: -2.72%
60 | COc1ccc(C(NC(=O)N2CC(C)OC(C)C2)C(Cl)(Cl)Cl)cc1F (centres undefined) | inconclusive: 100 µM [inhibitor, partial curve, poor fit] | –
61 | COc1cc(O)sc1C=Nc1ccc(Cl)cc1 | inconclusive: 20 µM [inhibitor, full curve, poor fit] | –
62 | O=S(=O)(Nc1nccs1)c1ccc(NCc2cc(Br)cc(Br)c2O)cc1 | inconclusive: 56.2 µM [inhibitor, partial curve] | –
63 | O=C(CSc1ccc2ccccc2n1)NCc1ccc2c(c1)OCO2 | inconclusive: 22.4 µM [inhibitor, partial curve] | –
64 | CCOC(=O)c1cc(-c2ccc(C)cc2)n(CCC(=O)Nc2nc3c(C)cccc3s2)c1C | inconclusive: 22.4 µM [inhibitor, full curve] | –
65 | Cc1ccc(CC(=O)N(C)CC(=O)Nc2ccc(N3CCOCC3)cc2)cc1C | – | inactive: -15.2%
66 | COc1ccc2c(CC(=O)OCC(=O)Nc3ccc(C)cc3)coc2c1 | – | inactive: -28.9%
67 | COc1cc(OC)cc(C2=NC3(CCC(C)CC3)NC2=S)c1 (centres undefined) | inconclusive: 63.1 µM [inhibitor, single point] | –
68 | Nc1nnnn1/N=C/c1cc(Cl)cc(Cl)c1O | active: 39.8 µM | –
69 | Cc1occc1C(=O)N1CCCC(N2CCN(c3cccc(Cl)c3)CC2)C1 (centres undefined) | inconclusive: 50.1 µM [inhibitor, partial curve] | –
